Test results reported in patent US11207320B2, “Compositions and methods for cancer expressing PDE3A or SLFN12” (The Broad Institute, Inc., priority 2015, dated 2021).
Further values from the same series stand in other lists.

Test system: 766 cancer cell lines
Experiment: Large-scale cell-line viability measurements (766 cancer cell lines, 72 h, AUC)
Assay type: cell-based, human
Protocol: Cell lines were treated for 72 hours with concentrations ranging from 66.4 μM-2 nM in 2-fold step dilutions.
To characterize cellular sensitivity to DNMDP further, 766 genomically characterized cancer cell lines were screened for DMNDP sensitivity at concentrations ranging from 66.4 μM to 2 nM in 2-fold dilution steps for 72 hours. From these cell lines, 22 cell lines were categorized as sensitive with a robust Z-score lower than −4, which represented multiple lineages including multiple melanoma cell lines, amongst others (Table 1).
The sensitivity of […] cancer cell lines (CCLs) was measured drawn from 23 different lineages to DNMDP. Each cell line was plated in its preferred media in white opaque 1536-plates at a density of 500 cells/well. After incubating overnight, DNMDP was added by acoustic transfer at 16 concentrations ranging from 66.4 μM-2 nM in 2-fold steps in duplicate (Labcyte Echo 555, Labcyte Inc., Sunnyvale, Calif.). After 72 hours treatment, cellular ATP levels were measured as a surrogate for viability (CELLTITERGLO®, Promega Corporation, Madison, Wis.) according to manufacturer's protocols using a ViewLux Microplate Imager (PerkinElmer, Waltham, Mass.) and normalized to background (media-only) and vehicle (DMSO)-treated control wells.
Concentration response curves were fit using nonlinear fits to 2- or 3-parameter sigmoid functions through all 16 concentrations with the low-concentration asymptote set to the DMSO-normalized value, and an optimal 8-point dose curve spanning the range of compound-sensitivity was identified. The area under the 8-point dose curve (AUC) was computed by numeric integration as a metric for sensitivity for further analysis. Similar sensitivity measurements have been obtained for a collection of 480 other compounds, enabling analyses that identify cell lines responding uniquely to DNMDP (see Broad Institute Cancer Therapeutics Response Portal, a dataset to identify comprehensively relationships between genetic and lineage features of human cancer cell lines and small-molecule sensitivities for complete list of compounds).

[1] = cell line CAMA1, BREAST, 72 hours
[2] = cell line CAPAN2, PANCREAS, 72 hours
[3] = cell line CCFSTTG1 (CENTRAL NERVOUS SYSTEM)
[4] = cell line CHP126 (AUTONOMIC GANGLIA)
[5] = cell line CL11 (LARGE INTESTINE)
[6] = cell line CMK (HAEMATOPOIETIC AND LYMPHOID TISSUE)
[7] = cell line COLO201 (LARGE INTESTINE)
[8] = cell line COLO205 (LARGE INTESTINE)
[9] = cell line COLO680N (OESOPHAGUS)
[10] = cell line COLO684 (ENDOMETRIUM)
[11] = cell line CORL95, LUNG, 72 hours
[12] = cell line D283MED (CENTRAL NERVOUS SYSTEM)
[13] = cell line DAOY (CENTRAL NERVOUS SYSTEM)
[14] = cell line DEL (HAEMATOPOIETIC AND LYMPHOID TISSUE)
[15] = cell line DETROIT562 (UPPER AERODIGESTIVE TRACT)
[16] = cell line DLD1 (LARGE INTESTINE)
[17] = cell line DMS79, LUNG, 72 hours
[18] = cell line ECC10, STOMACH, 72 hours
[19] = cell line EFE184, ENDOMETRIUM, 72 hours
[20] = cell line EM2, HAEMATOPOIETIC AND LYMPHOID TISSUE, 72 hours
[21] = cell line FADU (UPPER AERODIGESTIVE TRACT)

CCN(CC)c1ccc(C2=NNC(=O)CC2C)cc1[N+](=O)[O-] (centres unmarked) [DNMDP, 6-(4-(diethylamino)-3-nitrophenyl)-5-methyl-4,5-dihydropyridazin-3(2H)-one]
Robust Z-score (cell line CALU1, LUNG, 72 hours): 1.243
DNMDP AUC (cell line CALU3 (LUNG)): 6.7536
Robust Z-score (cell line CALU3 (LUNG)): 0.1249
DNMDP AUC (cell line CALU6 (LUNG)): 6.5932
Robust Z-score (cell line CALU6 (LUNG)): −0.04351
DNMDP AUC [1]: 7.2254
Robust Z-score [1]: 0.6201
DNMDP AUC (cell line CAPAN1 (PANCREAS)): 6.786
Robust Z-score (cell line CAPAN1 (PANCREAS)): 0.1589
DNMDP AUC [2]: 7.6273
Robust Z-score [2]: 1.042
DNMDP AUC [3]: 7.0119
Robust Z-score [3]: 0.396
DNMDP AUC (cell line CFPAC1 (PANCREAS)): 6.8671
Robust Z-score (cell line CFPAC1 (PANCREAS)): 0.244
DNMDP AUC [4]: 6.7459
Robust Z-score [4]: 0.1168
DNMDP AUC [5]: 6.711
Robust Z-score [5]: 0.08014
DNMDP AUC [6]: 6.7483
Robust Z-score [6]: 0.1193
DNMDP AUC [7]: 6.752
Robust Z-score [7]: 0.1232
DNMDP AUC [8]: 6.7052
Robust Z-score [8]: 0.07405
DNMDP AUC [9]: 6.8864
Robust Z-score [9]: 0.2642
DNMDP AUC [10]: 6.993
Robust Z-score [10]: 0.3761
DNMDP AUC (cell line COLO783 (SKIN)): 6.778
Robust Z-score (cell line COLO783 (SKIN)): 0.1505
DNMDP AUC (cell line COLO792 (SKIN)): 6.7997
Robust Z-score (cell line COLO792 (SKIN)): 0.1732
DNMDP AUC (cell line CORL88 (LUNG)): 6.7915
Robust Z-score (cell line CORL88 (LUNG)): 0.1646
DNMDP AUC [11]: 8.5762
Robust Z-score [11]: 2.038
DNMDP AUC [12]: 6.857
Robust Z-score [12]: 0.2334
DNMDP AUC (cell line DANG (PANCREAS)): 6.8825
Robust Z-score (cell line DANG (PANCREAS)): 0.2602
DNMDP AUC [13]: 6.6343
Robust Z-score [13]: −0.0003674
DNMDP AUC [14]: 6.7494
Robust Z-score [14]: 0.1204
DNMDP AUC [15]: 6.7465
Robust Z-score [15]: 0.1174
DNMDP AUC [16]: 6.6751
Robust Z-score [16]: 0.04246
DNMDP AUC [17]: 7.1572
Robust Z-score [17]: 0.5485
DNMDP AUC (cell line DMS114 (LUNG)): 6.6335
Robust Z-score (cell line DMS114 (LUNG)): −0.001207
DNMDP AUC (cell line DMS273 (LUNG)): 7.0958
Robust Z-score (cell line DMS273 (LUNG)): 0.484
DNMDP AUC (cell line DMS454 (LUNG)): 7.019
Robust Z-score (cell line DMS454 (LUNG)): 0.4034
DNMDP AUC (cell line DU4475 (BREAST)): 6.742
Robust Z-score (cell line DU4475 (BREAST)): 0.1127
DNMDP AUC (cell line EBC1 (LUNG)): 6.5617
Robust Z-score (cell line EBC1 (LUNG)): −0.07657
DNMDP AUC [18]: 7.3182
Robust Z-score [18]: 0.7175
DNMDP AUC (cell line ECC12 (STOMACH)): 6.6785
Robust Z-score (cell line ECC12 (STOMACH)): 0.04603
DNMDP AUC [19]: 7.1614
Robust Z-score [19]: 0.5529
DNMDP AUC (cell line EFO21 (OVARY)): 6.633
Robust Z-score (cell line EFO21 (OVARY)): −0.001732
DNMDP AUC (cell line EFO27 (OVARY)): 6.832
Robust Z-score (cell line EFO27 (OVARY)): 0.2071
DNMDP AUC [20]: 7.5755
Robust Z-score [20]: 0.9876
DNMDP AUC (cell line EN (ENDOMETRIUM)): 6.9773
Robust Z-score (cell line EN (ENDOMETRIUM)): 0.3597
DNMDP AUC (cell line ES2 (OVARY)): 6.7183
Robust Z-score (cell line ES2 (OVARY)): 0.0878
DNMDP AUC (cell line ESS1 (ENDOMETRIUM)): 6.7626
Robust Z-score (cell line ESS1 (ENDOMETRIUM)): 0.1343
DNMDP AUC [21]: 6.7809
Robust Z-score [21]: 0.1535
DNMDP AUC (cell line FTC133 (THYROID)): 6.8949
Robust Z-score (cell line FTC133 (THYROID)): 0.2732
